In PubChem BioAssay AID588342 (National Center for Advancing Translational Sciences (NCATS), 2011):
About 25,000 (6.9%) of roughly 360,000 compounds were called active. The inconclusive results got no clear call from the source; some entries with a clear call stand among them for comparison. Calls follow the shape of the dose curve; as a rule, active = well fitted inhibition curve with a large enough effect; inconclusive = small, poorly fitted or top-dose-only effect; inactive = flat fitted curve, though single readings scatter. Potencies of inconclusive entries are doubtful fits and often do not repeat.

Each compound was assayed against Luciferin 4-monooxygenase (Photinus pyralis) (UniProt P08659) (assay: qHTS profiling assay for firefly luciferase inhibitor/activator using purifed enzyme and Km concentrations of substrates (counterscreen for miR-21 project)). Conditions: purified FLuc, luminescence inhibition; series mostly up to 57.5 µM.
Outline: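 Biochemical qHTS of compounds, final roughly 60 µM downward over six points, against 10 nM purified firefly luciferase using Km concentrations of substrates (10 uM D-luciferin, 10 uM ATP) in Tris acetate pH 7.5 buffer; luminescence output.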
Also: nearly all actives have a fitted effect of over 55% in size.
Potency is read from the fitted curve at half-maximal effect; tags tell the direction and shape of the fitted curve.

UniProt P08659, sequence (P08659 whole entry, looked up): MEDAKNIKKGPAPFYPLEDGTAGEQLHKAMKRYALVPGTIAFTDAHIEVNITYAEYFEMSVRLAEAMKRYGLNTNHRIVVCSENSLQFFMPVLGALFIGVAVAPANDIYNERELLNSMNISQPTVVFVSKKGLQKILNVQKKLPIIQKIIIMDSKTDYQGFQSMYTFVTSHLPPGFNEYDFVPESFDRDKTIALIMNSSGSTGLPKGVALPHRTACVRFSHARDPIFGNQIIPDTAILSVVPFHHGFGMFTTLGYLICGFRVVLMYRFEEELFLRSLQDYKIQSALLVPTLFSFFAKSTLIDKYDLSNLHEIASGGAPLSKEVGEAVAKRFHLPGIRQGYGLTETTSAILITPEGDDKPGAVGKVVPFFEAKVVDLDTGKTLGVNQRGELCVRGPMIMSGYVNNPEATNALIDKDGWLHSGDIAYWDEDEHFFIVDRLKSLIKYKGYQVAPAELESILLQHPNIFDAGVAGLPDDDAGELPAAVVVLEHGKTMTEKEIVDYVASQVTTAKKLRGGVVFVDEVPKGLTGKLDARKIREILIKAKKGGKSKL

Row | SMILES | Potency
1 | CCN(CC(=O)Nc1ccc2c(c1)OCCO2)C(=O)c1ccc(C)c(S(=O)(=O)N2CCOCC2)c1 | inconclusive: 42.6 µM [inhibitor, partial curve, poor fit]
2 | C=C1SC(=Nc2ccccc2Cl)N(C(=O)c2sc3ccccc3c2Cl)C1(C)C | inconclusive: 15.1 µM [inhibitor, partial curve]
3 | C=Cc1ccc(Cn2c(=O)n(-c3cccc(C)c3)c(=O)c3c2c2cc(C)ccc2n3C)cc1 | inactive
4 | CC(C)(C)C1CCC(OC(=O)CN2CCOCC2)CC1 (centres undefined) | inconclusive: 37.9 µM [inhibitor, single point]
5 | Cc1ccc2nc(SCCCCOc3ccccc3)[nH]c2c1 | inconclusive: 30.1 µM [inhibitor, partial curve, poor fit]
6 | Cc1ccc(NC(=O)c2ccc3c(SCC(=O)O)c4c(nc3c2)CCCC4)c(Br)c1 | inconclusive: 21.3 µM [inhibitor, single point]
7 | CCOc1ccc(OCC(=O)Nc2c(C(=O)Nc3ccc(C)cc3)oc3ccccc23)cc1 | inactive
8 | C=CCn1c(SCc2csc(-c3ccc(Cl)cc3)n2)nnc1-c1ccccc1OC | inconclusive: 26.9 µM [inhibitor, single point]
9 | O=C(CN1CCC(n2nnc3cc(F)ccc32)CC1)NC1CC1 | inactive
10 | O=C(O)CCN1C(=O)c2ccc(NC(=O)CSc3ccc(Cl)cc3)cc2C1=O | inconclusive: 30.1 µM [inhibitor, partial curve, poor fit]
11 | Cc1[nH]n(-c2ccccc2)c(=O)c1-c1ccc(Cl)cc1 | inconclusive: 33.8 µM [inhibitor, partial curve, poor fit]
12 | Clc1ccccc1OCc1nc(-c2ccncc2)no1 | active: 10.7 µM
13 | CCOC(=O)c1sc(=NC(=O)c2ccccc2Br)n(C)c1C | active: 2.13 µM
14 | Nc1ccc2nn(-c3ccc(Cl)cc3)nc2c1 | active: 0.757 µM
15 | O=C(Nc1ccc(F)cc1F)c1ccc2c(=O)n3c(nc2c1)CCCCC3 | inconclusive: 19 µM [inhibitor, partial curve]
16 | O=C(NNC(=O)c1cccc2ccccc12)c1ccc2c(c1)OCO2 | inconclusive: 30.1 µM [inhibitor, partial curve, poor fit]
17 | O=C(Nc1ccc(Br)cc1F)c1ccc2nsnc2c1 | inconclusive: 1.9 µM [inhibitor, full curve]
18 | COC(=O)c1cccc(NC(=S)Nc2ccc(Cl)c(Cl)c2)c1 | inactive
19 | COc1ccc(C(=O)NCc2nnc(SCC(=O)Nc3ccc4c(c3)OCO4)o2)cc1 | inconclusive: 26.9 µM [inhibitor, partial curve, poor fit]
